The values that follow come from PubChem BioAssay AID463173 (ICCB-Longwood Screening Facility, Harvard Medical School, 2010).

Hit rate of the full screen: of about 52,000 compounds, about 4,300 (8.3%) were called active. No stated cut-off is given here; in the data, active means survival mostly below about 52% (no sharp cut-off); inactive means mostly above about 56%. The list shows a part of the results.

In this experiment the test system is DeltatarO mutant. Nature of the experiment: S. aureus survival, RN4220 and DeltatarO strains – OD600, teichoic acid synthesis inhibitors, primary screen (AID 463173). The note with it: S. aureus RN4220 wild type/DeltatarO growth, OD600, 18 h, hits give low values, screened at 18.75 µg/mL (by protocol).
For the compound `Cc1cccc(C)c1NC(=O)CCS(=O)(=O)c1cccc2nonc12`, the survival was inactive: 74%.

As for `COC(=O)c1ccc(-c2nc3ccc(C)cc3o2)cc1`, the survival is inactive: 102%. Turning to `CCOC(=O)c1ccc(NC2=CC(c3ccc(F)cc3)N(c3ccc(C(=O)OCC)cc3)C2=O)cc1` (stereo not drawn), the survival was inactive: 66%.

With `CCOc1ccccc1NC(=O)c1cc2c(=O)n(Cc3cccnc3)ccc2nc1C`, the survival was inactive: 64%. The same measure for `CCCOc1cccc(C(=O)Nc2ccc(-c3cc4ccccc4oc3=O)c(C)c2)c1`: inactive: 73%. For `O=C(Cc1ccccc1)NN1C(=O)CSC1=S`, the survival is inactive: 71%. For `Cc1ccccc1Cn1c(SCc2ccc(C(=O)NC3CCCC3)cc2)nc2ccncc21`, the survival was inactive: 66%. For the compound `CC(=O)Nc1ccc(Nc2ncnc3c2c(-c2ccccc2)cn3-c2ccc(C)c(Cl)c2)cc1`, the survival was inactive: 68%. For the compound `COc1ccc(C2C(C(=O)Nc3ccccc3)=C(C)Nc3nc(-c4ccccc4Cl)nn32)cc1OC` (stereo not drawn), the survival is inactive: 50%. For `CCOCCCNc1nc2cc(OC)c(OC)cc2c2nc(-c3ccccc3)nn12`, the survival was active: 44%. As for `Cc1ccc(NC(=O)Cn2c(=O)n(CCC(=O)NCc3ccccc3Cl)c(=O)c3ccccc32)c(C)c1`, the survival was inactive: 102%. Turning to `CC(C)OC(=O)CCC1(C(=O)O)CCC(=O)NC1` (stereo not drawn), the survival is inactive: 88%.

`Cc1cccc(NS(=O)(=O)c2ccc3nc(-c4ccccc4)[nH]c3c2)c1C`: the survival is inactive: 109%. Take `O=C(Nc1ccc2nc(SCCOc3ccccc3)sc2c1)c1ccc2c(c1)OCO2`: the survival is inactive: 83%. For the compound `Clc1ccccc1Nc1ncnc2c1nc1n2CCCCC1`, the survival was active: 8%. For `Cc1ccc2nc(N3CCN(c4ccccc4F)CC3)c3nnnn3c2c1`, the survival is inactive: 87%. Consider `COc1ccc(CC(=O)NCc2ccc3c(c2)CCN3C(=O)c2cccc(C)c2)cc1`, for which the survival is active: -4%. The same measure for `Cc1ccc(-n2cnc3cc(C(=O)NCc4ccccc4Cl)ccc32)c(C)c1`: active: 37%. In the case of `CCCOc1cccc(C2c3c(oc4ccc(F)cc4c3=O)C(=O)N2Cc2ccc3c(c2)OCO3)c1` (stereo not drawn), the survival was inactive: 66%.

`Cc1nc(-n2nc(C)c(Cc3ccc4c(c3)OCO4)c2C)sc1C(=O)Nc1ccc(Cl)cc1`: the survival is inactive: 95%. Take `Cc1cccc(Cn2cccc2CNS(=O)(=O)c2ccc(C)c(C)c2)c1`: the survival is inactive: 82%. For the compound `CSc1ccc(-c2ccc3c(c2)OCCO3)nn1`, the survival is inactive: 91%.

`CCCCN(Cc1ccco1)C(=O)Cn1ncc2c([nH]c3ccccc32)c1=O`: the survival is inactive: 144%.

Regarding `CN1CCSc2ccc(C(=O)NCc3ccccc3)cc21`, the survival is inactive: 67%. Take `O=C(c1ccco1)n1nc(-c2ccc(Cl)cc2)nc1NCc1ccc(F)cc1`: the survival was inactive: 80%.

`COc1ccc2c(c1)cc1c(=O)n(CC(=O)NCCc3ccccc3)nc(C)n12`: the survival was inactive: 73%. Turning to `CCOC(=O)Cc1ccc(NC(=O)N2CC(C)Oc3ccc(Cl)cc32)cc1` (stereo not drawn), the survival is inactive: 55%. Turning to `COc1cc2nc(NCc3ccccc3)n3nc(-c4ccccc4)nc3c2cc1OC`, the survival is active: 47%. For the compound `O=C(Nc1cccc(Br)c1)c1cc(-c2ccc3c(c2)OCCO3)on1`, the survival is inactive: 47%. Consider `CC(C)NS(=O)(=O)c1ccc(N2C(=O)c3ccccc3C2=O)cc1`, for which the survival is inactive: 96%. The same measure for `C=CCN(CC=C)C(=O)CN1C(=O)c2ccccc2C1=O`: inactive: 68%. Take `COc1cc2[nH]c(=O)n(CCCCCC(=O)N3CCN(c4ccc(Cl)cc4)CC3)c(=O)c2cc1OC`: the survival is inactive: 67%. The same measure for `Cc1ccc(C(=O)CSc2nc3ccccc3c(=O)n2Cc2ccco2)cc1`: inactive: 85%. Take `Cc1cccc(Cn2c(=O)n(CC3CCC(C(=O)N4CCC(C)CC4)CC3)c(=O)c3sccc32)c1` (stereo not drawn): the survival was inactive: 75%. The result for `Cc1nc2cc(-c3ccccc3)nn2c(C)c1CCC(=O)NCc1cccc(Cl)c1` reads inactive: 43%; that for `Cc1ccc(CNC(=O)CN(c2cc(C)cc(C)c2)S(=O)(=O)c2c(C)noc2C)cc1`, inactive: 84%. `COc1ccc(CNC(=O)CCc2c(C)c3cc4c(C)coc4cc3oc2=O)cc1`: the survival is inactive: 75%. With `COc1ccc(CNC(=O)c2nc(S(=O)(=O)Cc3ccccc3)ncc2Cl)cc1`, the survival is active: 18%. As to `Cc1cccc(NC(=O)/C(=C\c2ccco2)NC(=O)c2cccs2)c1`, the survival was inactive: 84%. Turning to `Cc1ccc(-n2nc3c(=O)n(CC(=O)NCc4ccco4)nc(C)c3c2C)cc1`, the survival was inactive: 75%.

As for `Cc1ccc(-n2c(=O)c3ccc(C(=O)NCc4ccco4)cc3n(Cc3ccc(Cl)cc3)c2=O)cc1`, the survival was inactive: 77%. In the case of `Cc1ccccc1CNCCSc1nnnn1-c1ccccc1`, the survival is inactive: 89%. With `CCOC(=O)N1CCN(Cc2nc3cc(NC(=O)c4ccccc4OC)ccc3n2C(C)C)CC1`, the survival was inactive: 80%. The result for `COc1ccc(S(=O)(=O)N2CCC(NC(=O)c3ccccc3)CC2)cc1` reads inactive: 103%; that for `Cc1ccc2c(c1)N(CC(=O)NCCCN1CCCCC1C)C(=O)c1cccnc1O2` (stereo not drawn), inactive: 69%; that for `COc1ccc(-n2c(=O)c3ccc(C(=O)NCc4ccc(C)cc4)cc3n(Cc3ccc(C)cc3)c2=O)cc1`, inactive: 84%.

Take `COc1ccc(Oc2nc3c(C)cccn3c(=O)c2/C=C(\C#N)c2nc3ccccc3[nH]2)cc1`: the survival is inactive: 82%. In the case of `CCc1ccc2ncc3c(-c4ccc(C)cc4)nn(CC(=O)Nc4ccc(C)cc4)c3c2c1`, the survival was inactive: 55%. In the case of `Cc1cc(C)c(NC(=O)Cn2c(=O)n(-c3ccc(F)cc3)c(=O)c3c(C)c(C(=O)N(C)C)sc32)c(C)c1`, the survival is inactive: 67%.

Take `O=C(Nc1ccccc1O)c1cccc(S(=O)(=O)Nc2ccccc2O)c1`: the survival is inactive: 95%. Regarding `COC(=O)c1cc2occc2n1Cc1nc(-c2cccc(Br)c2)oc1C`, the survival is inactive: 80%. For the compound `Cc1cc(NC(=O)CC(C)C)c(=O)n(Cc2ccccc2F)c1`, the survival is inactive: 104%. For `COc1ccc(-c2nc3ccccc3o2)cc1N`, the survival is inactive: 72%. As for `Cc1nc2nc(SCC(=O)N(Cc3ccccc3)C(C)C)nn2c(C)c1Cc1ccccc1Cl`, the survival was inactive: 49%. For `CSc1ccc(CCNc2ncnc3onc(-c4ccc(Cl)cc4)c23)cc1`, the survival is inactive: 67%. As for `Cc1cc(C)c2sc(N3CCN(C(=O)C4CC4)CC3)nc2c1`, the survival was inactive: 126%.

For the compound `Cc1ccc(-n2c3c(cc(C(=O)NCc4ccco4)c2=O)C(=O)CCC3)cc1`, the survival was inactive: 96%. As for `CCc1ccc(CNC(=O)CSCc2cnn(-c3ccccc3)c2-n2cccc2)cc1`, the survival was inactive: 65%. The same measure for `Cc1ccc(Cn2c(=O)c3ccccc3n3c(-c4ccccc4)nnc23)cc1`: inactive: 86%; for `COc1ccc(C2CC(=O)N3CN(C4CCCCC4)CSC3=C2C#N)cc1` (stereo not drawn): inactive: 123%; for `CCOC(=O)C1=C(C)N(C)C(c2ccccc2)(C(F)(F)F)NC1=O` (stereo not drawn): inactive: 99%. Take `COc1ccc(NC(=O)CCCS(=O)(=O)c2nc(-c3ccc(OC)c(OC)c3)cc(C(F)(F)F)n2)cc1OC`: the survival was inactive: 80%.

Turning to `Cc1ccc(OCC(=O)Nc2ccc3nc(SCC(=O)N4CCCC4)sc3c2)cc1C`, the survival was inactive: 74%. The same measure for `COc1ccc(-n2c(=O)c3c4c(sc3n(Cc3cc(=O)n5c(C)cccc5n3)c2=O)CCC4)c(OC)c1`: inactive: 61%; for `CCN1C(=O)CC(C(=O)Nc2ccc(OC)cc2)SC1=Nc1ccc(C)c(C)c1` (stereo not drawn): inactive: 50%; for `O=C(Cn1cnc2c(cnn2-c2ccccc2)c1=O)N1CCCc2ccccc21`: inactive: 96%.

Consider `CC1(C)CC(=O)C2=C(C1)N(CC(=O)O)C1=C(C(=O)CC(C)(C)C1)C2c1ccccc1`, for which the survival was inactive: 76%.

As for `O=C(NCCC1=CCCCC1)c1ccc2c(c1)N(Cc1ccccc1)C(=O)c1ccccc1S2(=O)=O`, the survival was inactive: 67%. Turning to `COc1ccc(OC)c(CNS(=O)(=O)c2ccc(-c3cc(C(F)(F)F)on3)s2)c1`, the survival was active: -4%. `O=C(Cn1cc(SCc2ccccc2Cl)c2ccccc21)N1CCCCCC1`: the survival is inactive: 74%. As for `O=C(Nc1ccc2c(c1)N(C1CCCC1)C(=O)c1ccccc1S2)c1ccccc1`, the survival is inactive: 60%.

On to `COc1cccc(-c2nc(CS(=O)CC(=O)N3CCN(c4cccc(C(F)(F)F)c4)CC3)c(C)o2)c1` (stereo not drawn), for which the survival was active: 0%.

For `COc1ccc(CCNC(=O)C(=O)NCC(c2cccs2)S(=O)(=O)c2ccccc2)cc1` (stereo not drawn), the survival is inactive: 129%. As to `Cc1ccc(SCC(=O)Nc2ccc3oc(-c4cccc(C)c4)nc3c2)cc1`, the survival is inactive: 64%.

As for `N=C(N=Nc1c(O)n(Cc2ccccc2)c2ccccc12)SCC(=O)Nc1ccccc1`, the survival is active: 23%. With `Cc1ccc(Cl)cc1NC(=O)CCS(=O)(=O)c1ccc(Br)s1`, the survival was inactive: 49%.

As for `Cc1ccc(N2CC(C(=O)OCC(=O)C(C)(C)C)CC2=O)cc1` (stereo not drawn), the survival is inactive: 103%.

As for `CC(C)CCNC(=O)CSc1nc2ccsc2c(=O)n1Cc1ccccc1Cl`, the survival was inactive: 82%. The same measure for `COC(=O)CSc1n[nH]c(C)n1`: inactive: 92%; for `COc1ccc(-c2noc(-c3ccccc3NC(=O)c3cc(OC)c(OC)c(OC)c3)n2)cc1`: active: 34%; for `O=C(c1cc2ccccc2oc1=O)N(Cc1ccc2c(c1)OCO2)CC1CCCO1` (stereo not drawn): active: 42%. Take `O=S(=O)(Nc1nc2n(n1)C(c1ccccc1)C=C(c1ccc(Cl)cc1)N2)c1ccccc1` (stereo not drawn): the survival is active: 47%. The same measure for `Cc1ccc(N2CCN(C(=O)c3nn(C)c4c3CSc3ccccc3-4)CC2C)cc1` (stereo not drawn): inactive: 53%; for `Cc1ccc(CNC(=O)CN(c2cc(C)cc(C)c2)S(=O)(=O)c2c(C)[nH]c(=O)[nH]c2=O)cc1`: inactive: 91%; for `CCc1ccc(C2c3c(n[nH]c3C)C(=O)N2c2ccc(C)cc2)cc1` (stereo not drawn): active: 8%.

For `CCc1cccc(NC(=O)CCS(=O)(=O)c2ccc(C)cc2)c1`, the survival is inactive: 88%.

As to `O=C(NC1CCCC1)c1ccc2c(c1)N(Cc1ccc(F)cc1)C(=O)c1ccccc1S2`, the survival was inactive: 81%. Regarding `O=C(NCCCN1CCN(c2ccccc2)CC1)c1cc2c(s1)-c1ccccc1OC2`, the survival is inactive: 53%.
